The record followed here is the supplement of paper PMC10037445.

Structures are written as SMILES. In all, about 2,900 compounds were measured (“IRF Lucia reporter activity, fold change vs agonist alone”: median about 0.9, highest 2% from about 2.8 on). Some of the results follow.

For experiment [1], the system named is RAW-Dual. The experiment in a line: IRF Lucia reporter activity, fold change vs agonist alone; higher = enhanced IRF activity. Particulars: library stock concentration (final ~1000-fold dilution): 10 mM, agonist: MPLA (TLR4) […]. Summed up: (§1)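 Reporter activity is given as fold change relative to agonist-alone wells. To measure it, 50 nL of library stock was pin-tooled onto RAW-Dual macrophages (50,000 cells/well, DMEM, 384-well plates), a PRR agonist followed 1 h later, and cells stayed at 37 °C, 5% CO2. Twenty hours on, supernatant was assayed for IRF (QuantiLuc luminescence) and NF-κB (QuantiBlue, 620 nm absorbance), and wells under 70% of agonist-control IncuCyte confluency in both mask sets were marked cytotoxic.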

Experiment [2] deals with RAW-Dual. The experiment in a line: IRF Lucia reporter activity, fold change vs agonist alone; cytotoxicity flag (confluency mask): not cytotoxic; higher = enhanced IRF activity. In a few lines: as §1
Experiment [3] has as its system RAW-Dual. The experiment is described as follows: IRF Lucia reporter activity, fold change vs agonist alone; cytotoxicity flag (confluency mask): cytotoxic (confluency <70% of control); higher = enhanced IRF activity. Summed up:
as §1

The mark [4] stands for this setting: cytotoxicity flag (confluency mask): not cytotoxic.
Setting [5] is: agonist: 3'3'-cGAMP (STING) 10 ug/mL.
Where [6] appears, read: cytotoxicity flag (confluency mask): cytotoxic (confluency <70% of control).

On to `COc1cc2c(cc1OC)C1CC(=O)C(CC(C)C)CN1CC2` (centres undefined), for which the “IRF Lucia reporter activity” value in the experiment with RAW-Dual [1] (setting [4]) was found to be 0.72.
As for `COc1cc2c(cc1OC)C1CC(=O)C(CC(C)C)CN1CC2` (centres undefined) (library stock concentration (final ~1000-fold dilution): 10 mM), the “IRF Lucia reporter activity” value in the experiment with RAW-Dual [2] (setting [5]) is 1.1; in the experiment on RAW-Dual [2] (agonist: LPS (TLR4) 0.1 ug/mL), 0.906.
For the compound `CCc1c2c(nc3ccccc13)-c1cc3c(c(=O)n1C2)COC(=O)C3(O)CC` (centres undefined), the “IRF Lucia reporter activity” value in the experiment with RAW-Dual [1] (setting [6]) was found to be 0.987.
With `CCc1c2c(nc3ccccc13)-c1cc3c(c(=O)n1C2)COC(=O)C3(O)CC` (centres undefined) (library stock concentration (final ~1000-fold dilution): 10 mM), the “IRF Lucia reporter activity” value in the experiment on RAW-Dual [3] (setting [5]) worked out at 0.919; in the experiment with RAW-Dual [3] (agonist: LPS (TLR4) 0.1 ug/mL), 0.139.
On to `Cc1sc2c(c1C)C(c1ccc(Cl)cc1)=NC(CC(=O)OC(C)(C)C)c1nnc(C)n1-2` (centres undefined) (library stock concentration (final ~1000-fold dilution): 10 mM), for which the “IRF Lucia reporter activity” value in the experiment with RAW-Dual [3] (setting [5]) came to 0.193; with RAW-Dual [3] (agonist: LPS (TLR4) 0.1 ug/mL), 0.185.
Consider `Cc1sc2c(c1C)C(c1ccc(Cl)cc1)=NC(CC(=O)OC(C)(C)C)c1nnc(C)n1-2` (centres undefined), for which the “IRF Lucia reporter activity” value in the experiment on RAW-Dual [1] (setting [6]) came out at 0.122.
Consider `O=S(=O)(F)Cc1ccccc1` (library stock concentration (final ~1000-fold dilution): 10 mM), for which the “IRF Lucia reporter activity” value is 0.995 in the experiment with RAW-Dual [2] (setting [5]) and 1.09 in the experiment with RAW-Dual [2] (agonist: LPS (TLR4) 0.1 ug/mL).
For `O=S(=O)(F)Cc1ccccc1`, the “IRF Lucia reporter activity” value with RAW-Dual [1] (setting [4]) was 1.08.
Consider `Br.COc1ccc2c(c1)C13CCCCC1C(C2)N(C)CC3.O` (centres undefined) (library stock concentration (final ~1000-fold dilution): 10 mM), for which the entries for the “IRF Lucia reporter activity” value in the experiment on RAW-Dual [2] (setting [5]) and with RAW-Dual [2] (agonist: LPS (TLR4) 0.1 ug/mL) were 0.827 and 1.18, respectively.
As to `Br.COc1ccc2c(c1)C13CCCCC1C(C2)N(C)CC3.O` (centres undefined), in the experiment on RAW-Dual [1] (setting [4]), the “IRF Lucia reporter activity” value is 1.03.
Turning to `CCNCC.O=C(O)Cc1ccccc1Nc1c(Cl)cccc1Cl` (library stock concentration (final ~1000-fold dilution): 10 mM), the “IRF Lucia reporter activity” value in the experiment on RAW-Dual [2] (setting [5]) came out at 0.91; in the experiment on RAW-Dual [2] (agonist: LPS (TLR4) 0.1 ug/mL), 1.04.
As for `CCNCC.O=C(O)Cc1ccccc1Nc1c(Cl)cccc1Cl`, in the experiment with RAW-Dual [1] (setting [4]), the “IRF Lucia reporter activity” value came to 0.892.
For `COc1cc(-n2c(S)nc3ccccc3c2=O)c(Cl)cc1Cl`, the “IRF Lucia reporter activity” value in the experiment on RAW-Dual [1] (setting [4]) is 1.11.
With `COc1cc(-n2c(S)nc3ccccc3c2=O)c(Cl)cc1Cl` (library stock concentration (final ~1000-fold dilution): 10 mM), the “IRF Lucia reporter activity” value with RAW-Dual [2] (setting [5]) stood at 0.865; in the experiment on RAW-Dual [2] (agonist: LPS (TLR4) 0.1 ug/mL), 0.58.
`Cc1cc(C(=O)CN2CCCC2)c(C)n1-c1ccc(F)cc1`: the “IRF Lucia reporter activity” value in the experiment with RAW-Dual [1] (setting [4]) stood at 1.2.
In the case of `Cc1cc(C(=O)CN2CCCC2)c(C)n1-c1ccc(F)cc1` (library stock concentration (final ~1000-fold dilution): 10 mM), the “IRF Lucia reporter activity” value stood at 0.913 in the experiment on RAW-Dual [2] (setting [5]) and 1.48 in the experiment on RAW-Dual [2] (agonist: LPS (TLR4) 0.1 ug/mL).
`CC1CCC/C=C/C2CC(O)CC2C(O)/C=C/C(=O)O1` (centres undefined): the “IRF Lucia reporter activity” value in the experiment with RAW-Dual [1] (setting [4]) was 0.153.
For `CC1CCC/C=C/C2CC(O)CC2C(O)/C=C/C(=O)O1` (centres undefined) (library stock concentration (final ~1000-fold dilution): 10 mM), the “IRF Lucia reporter activity” value with RAW-Dual [2] (setting [5]) was determined as 0.0117; in the experiment with RAW-Dual [2] (agonist: LPS (TLR4) 0.1 ug/mL) it was 0.236.
Take `CC(C)c1ccc2c(c1O)CCC1C3=C(CCC21C)C(=O)OC3` (centres undefined) (library stock concentration (final ~1000-fold dilution): 10 mM): the “IRF Lucia reporter activity” value stood at 0.917 in the experiment on RAW-Dual [2] (setting [5]) and 1.25 in the experiment on RAW-Dual [2] (agonist: LPS (TLR4) 0.1 ug/mL).
For `COc1ccc2c(c1O)-c1c(OC)c(OC)cc3c1C(C2)N(C)CC3` (centres undefined) (library stock concentration (final ~1000-fold dilution): 10 mM) the same measures were 1 and 0.907.
`COc1ccc(C=O)cc1O` (library stock concentration (final ~1000-fold dilution): 10 mM): the “IRF Lucia reporter activity” value is 1.08 in the experiment with RAW-Dual [2] (setting [5]) and 1.24 with RAW-Dual [2] (agonist: LPS (TLR4) 0.1 ug/mL).
Consider `COc1ccc(C=O)cc1O`, for which, in the experiment on RAW-Dual [1] (setting [4]), the “IRF Lucia reporter activity” value was determined as 1.06.
Regarding `CCNC1(c2cccs2)CCCCC1=O.Cl` (centres undefined) (library stock concentration (final ~1000-fold dilution): 10 mM), the “IRF Lucia reporter activity” value in the experiment on RAW-Dual [2] (setting [5]) was found to be 0.511; with RAW-Dual [2] (agonist: LPS (TLR4) 0.1 ug/mL) it was 1.38.
On to `CCNC1(c2cccs2)CCCCC1=O.Cl` (centres undefined), for which the “IRF Lucia reporter activity” value with RAW-Dual [1] (setting [4]) is 1.05.
On the same count and under the same terms, with `CC(=O)OC1CC2CCC3C(CCC4(C)C3CC([N+]3(C)CCCCC3)C4OC(C)=O)C2(C)CC1[N+]1(C)CCCCC1` (centres undefined) the figure was 0.995.
On to `CC(=O)OC1CC2CCC3C(CCC4(C)C3CC([N+]3(C)CCCCC3)C4OC(C)=O)C2(C)CC1[N+]1(C)CCCCC1` (centres undefined) (library stock concentration (final ~1000-fold dilution): 10 mM), for which the “IRF Lucia reporter activity” value stood at 1.02 in the experiment with RAW-Dual [2] (setting [5]) and 1.08 with RAW-Dual [2] (agonist: LPS (TLR4) 0.1 ug/mL).
Regarding `COc1ccc2c(c1)/C(=C/c1cnc[nH]1)C(=O)N2` (library stock concentration (final ~1000-fold dilution): 10 mM), the “IRF Lucia reporter activity” value with RAW-Dual [2] (setting [5]) was found to be 0.0481; with RAW-Dual [2] (agonist: LPS (TLR4) 0.1 ug/mL), 0.0276.
For `COc1ccc2c(c1)[nH]c1c(C)nccc12`, the “IRF Lucia reporter activity” value in the experiment with RAW-Dual [1] (setting [4]) is 0.143.
In the case of `COc1ccc2c(c1)[nH]c1c(C)nccc12` (library stock concentration (final ~1000-fold dilution): 10 mM), the “IRF Lucia reporter activity” value in the experiment with RAW-Dual [2] (setting [5]) is 0.238; in the experiment with RAW-Dual [2] (agonist: LPS (TLR4) 0.1 ug/mL), 0.158.
For the compound `COC12CC(COC(=O)c3cncc(Br)c3)CN(C)C1Cc1cn(C)c3cccc2c13` (centres undefined) (library stock concentration (final ~1000-fold dilution): 10 mM), the “IRF Lucia reporter activity” value with RAW-Dual [2] (setting [5]) was determined as 0.646; in the experiment with RAW-Dual [2] (agonist: LPS (TLR4) 0.1 ug/mL), 1.62.
For the compound `COC12CC(COC(=O)c3cncc(Br)c3)CN(C)C1Cc1cn(C)c3cccc2c13` (centres undefined), the “IRF Lucia reporter activity” value in the experiment on RAW-Dual [1] (setting [4]) is 1.47.
Still for that read-out and setting: with `CN(C)NC(=O)CCC(=O)O` the figure was 0.986.
